Several values for one entry are separate records, joined by “and”; a condition that tells them apart may be missing. Equal entries are not always repeated.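 Dose response: 5 concentrations. Exposure: 48 h. Format: 96-well plates. Endpoint: linear interpolation; highest concentration if not reached. GI50: concentration for 50% inhibition of growth. TGI marks complete inhibition of growth.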

The assay relates to NCI-H322M lung. Kind of assay: NCI anticancer screen, dose series, 48 h.
The molecule `Brc1ccc(-c2[nH]c3ccccc3c2N=Nc2ccccc2)cc1` yielded a TGI of 31.7 µM.

In the case of `c1ccc(-c2[o+]c(-c3ccccc3)c(-c3ccccc3)c(-c3ccccc3)c2-c2ccccc2)cc1`, the TGI was more than 100 µM.

As to `COc1ccc2[nH]c3c(C)c4ccnc(NCCCN(C)CCCNc5ccc([N+](=O)[O-])c6[nH]c7ccccc7c(=O)c56)c4c(C)c3c2c1`, the TGI was found to be 4.46 µM.

For the molecule `COc1ccc2c(c1)CCc1c(C(C)=O)c3ccccc3n1C2`, the TGI is more than 100 µM.

`Cc1ccc(S(=O)(=O)Nn2c(S)c(C#N)c(-c3ccc(N(C)C)cc3)c(C#N)c2=O)cc1`: the TGI was more than 100 µM.

As to `O=c1oc2ccc(Br)cc2c(=O)n1-c1ccc(Br)cc1F`, the GI50 is 0.461 µM and the TGI is 14.4 µM.

In the case of `O=S(=O)(O)c1cc(N=Nc2cccc3ccccc23)c(O)c2ncccc12`, the TGI is more than 100 µM.

Turning to `CC(C)(C)C1=NC(=P(c2ccccc2)(c2ccccc2)c2ccccc2)C(=O)O1`, the TGI was more than 100 µM.

Molecule `N=C1N(/N=C/c2ccccn2)C(=Nc2ccccc2)C(=S)N1c1ccccc1` registered a TGI of 27.4 µM.

Consider `CCN(CC)CCCNc1[nH]ncc2cc3c(nc4ccc(OC)cc43)c(C)c12`, for which the TGI worked out at 12.7 µM.

Take `CCn1c(-c2nonc2N)nc2c(C#CC(C)(C)O)nc(CN3CCCC3)cc21`: the GI50 was more than 25 µM and the TGI was more than 25 µM.

As to `COc1cccc2c1C(=O)c1c(O)c3c(c(O)c1C2=O)C[C@@](O)(C(C)=O)C[C@@H]3O[C@H]1C[C@H](N)[C@H](O)[C@H](C)O1`, the GI50 was 0.288 µM and the TGI is 2.52 µM.

`C#C[C@]1(O)CCC2C3CCc4cc(Oc5nc(F)nc(-n6c(C)nc7cc8ccccc8cc76)n5)ccc4C3CCC21C` (some centres not stated) had a TGI of more than 100 µM.

Take `COC(=O)Cc1c(C(=O)CC(C)(C)n2cnc(CCN3C(=O)CCC3=O)c2)[nH]c2ccccc12`: the TGI was more than 100 µM.

As to `CC(=O)c1c2c(cc3c1CC1(Cc4cc5c(cc4C1)CCCC5)C3)CCCC2`, the TGI was more than 100 µM.

`COc1ccc2c(c1)OCCCN(C)OC2c1ccccc1` (configuration not stated) came in with a TGI of more than 100 µM.

The molecule `C[C@]12CCC3c4ccc(O)cc4CC[C@H]3C1CC(=O)NC2=O` (some centres not stated) had a TGI of more than 10 µM.

Take `O=C1C(Br)=CC2C1C1C3CCC3C2(Br)C12OCCO2` (configuration not stated): the GI50 was 3 µM and the TGI was determined as 10.8 µM.

On to `O=C(/C=C/c1ccc(Cl)cc1)c1ccc(Cl)c(Cl)c1`, for which the TGI was more than 100 µM.

Turning to `COc1cc2c3c(c1O)-c1c(ccc(OC)c1OC)CC3N(C)CC2` (configuration not stated), the TGI is more than 100 µM.

Take `N#Cc1c(-c2ccc(Cl)cc2)cc(-c2ccc(Nc3ccnc4cc(Cl)ccc34)cc2)nc1N`: the TGI was more than 100 µM.

On to `CC(OC(C)(C)C)[C@H](NC(=O)OCc1ccccc1)C(=O)NC(OCc1ccccc1)[C@H]1COC(C)(C)O1` (some centres not stated), for which the TGI was more than 10 µM.

In turn, `Cc1n[nH]c(=O)n1/N=C/c1ccc([N+](=O)[O-])cc1` had a TGI of more than 100 µM.

With `O=C1Nc2ccccc2/C1=C\c1c[nH]c2ccc(Br)cc12`, the GI50 was 3.94 µM and the TGI worked out at 52.5 µM.

With `COc1cc2c(/C=C3\C(=O)N(C)c4ccc(O)cc43)c[nH]c2cc1C`, the GI50 was 8.85 µM and the TGI turned out to be 31 µM.

`CCOC(=O)c1c(SC(=O)C(C)(C)Oc2ccc(Cl)cc2)n(-c2ccccc2)c(=S)n(-c2ccccc2)c1=O` yielded a TGI of 80.2 µM.

For the molecule `Cc1nn(-c2ccccc2)c2nc3c(c(C)nn3-c3ccccc3)c(-c3ccc(C(F)(F)F)cc3)c12`, the TGI was more than 100 µM.

`CCN(CC)CCOCCn1c2c(c3ccccc31)CCCC2` displayed a TGI of more than 100 µM.

Regarding `Cc1ccc(NC(=O)/C=C/c2ccccc2)c(C)c1`, the TGI is more than 100 µM.

The molecule `CC1=C(C(=O)CC(=O)C(=O)Nc2cccc(C)c2C)Sc2ccccc2N1` displayed a TGI of more than 100 µM.

Molecule `CC(C)C(N=c1c2ccccc2n(O)c2ccccc12)C(=O)O` (configuration not stated) registered a TGI of more than 100 µM.

For `CC(C)(C)OC(=O)NC(Cc1ccc(OCc2ccccc2)cn1)C(=O)N1CCCC1` (configuration not stated), the TGI is more than 100 µM.

Regarding `CC(C)c1cc2c(c(O)c1O)[C@@]1(C)CCCC(C)(C)C1=C(O)C2`, the TGI stood at 9.81 µM.

In turn, `Cc1cc2nc(N3C(=O)/C(=C/c4ccc(Oc5ccccc5)cc4)N=C3c3ccccc3)sc2cc1C` had a TGI of more than 100 µM.

As for `CCN1C(C)(C)CC(Oc2ccc(C(=O)Nc3ccc(NC(=O)Nc4cc(C(C)(C)C)on4)cc3)nc2)CC1(C)C`, the GI50 was 2.68 µM and the TGI was found to be 8.89 µM.

In the case of `O=C1NC(=NCc2ccccc2Br)S/C1=C\c1ccc2ncccc2c1`, the GI50 is 5.04 µM and the TGI is more than 20.9 µM.

In turn, `Nc1nc(Cl)nc(NCc2ccccc2)n1` came in with a TGI of more than 100 µM.

On to `CC(c1ccccc1)N1O[C@]12CC[C@@]1(C)C(CCCC13OCCO3)C2` (some centres not stated), for which the TGI was more than 100 µM.

The molecule `Cc1cc2c(=O)cc(-c3cccs3)oc2c(C(=O)O)c1C` registered a TGI of more than 100 µM.

In turn, `CN=c1ss/c(=N\C(=S)N(C)C)n1-c1ccccc1` registered a TGI of more than 100 µM.

In turn, `Nc1cccc(CCN2CCN(CCCc3ccccc3)CC2)c1` came in with a TGI of more than 100 µM.

In the case of `Cc1cc(Nc2nc(-c3ccc(F)cc3)nc3ccccc23)n[nH]1`, the GI50 was 3.99 µM and the TGI was determined as 29.3 µM.

Consider `O=C(NC/C(Cl)=C/Cl)Nc1c2ccccc2nc2ccccc12`, for which the TGI is more than 100 µM.

In turn, `CC(C)(C)c1ccc(S(=O)(=O)N2C(c3cccc(C4CC[C@@H](C(=O)O)N4S(=O)(=O)c4ccc(C(C)(C)C)cc4)c3)CC[C@H]2C(=O)O)cc1` (some centres not stated) returned a TGI of more than 100 µM.

`C1OC1C1CO1` (configuration not stated) had a TGI of more than 100 µM.

`CC(C)NC(=O)OCc1c(COC(=O)NC(C)C)c(-c2ccc[n+](COC(=O)C(C)C)c2)n2c1CCC2`: the TGI is more than 100 µM.

The molecule `CC(C)/C=N\N1C(N)=C(C#N)C(C#N)(C#N)C1C(C)C` (configuration not stated) registered a TGI of more than 100 µM.

On to `CSc1nc(N)cc(Oc2ccc(-c3nc(Nc4cccc(C(F)(F)F)c4)n[nH]3)cc2)n1`, for which the GI50 is 3.58 µM and the TGI was found to be 16.3 µM.

Molecule `CN1c2ccc(O)c(O)c2-c2cc(O)cc3c2C1CCC3` (configuration not stated) displayed a TGI of more than 100 µM.

In the case of `COc1ccc(C(=O)NCCC2=CCCCC2)cc1`, the TGI is more than 100 µM.

On to `O=C(CSc1nnc(-c2ccccn2)s1)N/N=C/c1ccc([N+](=O)[O-])cc1`, for which the TGI is more than 100 µM.

Take `C=CCNCCN1C(=O)c2ccc3c4c(ccc(c24)C1=O)C(=O)N(CCNCC=C)C3=O`: the GI50 was 0.698 µM and the TGI was determined as 2.23 µM.

Consider `Cc1c2c(nn1-c1ccc(S/N=C3\SCC(=O)CN3Cc3ccccc3)cc1)-c1ccccc1CC2`, for which the GI50 is more than 100 µM and the TGI is more than 100 µM.

In the case of `C[C@H](NC(=O)c1c(N)nn2cccnc12)c1cc2cccc(C#Cc3cnn(C)c3)c2c(=O)n1-c1ccccc1`, the GI50 is 8.35 µM and 6.26 µM; the TGI is > 10 µM and 27.3 µM.

Molecule `CC(=O)CC(=O)Nc1ccccc1[N+](=O)[O-]` came in with a TGI of more than 100 µM.

Regarding `COc1cc(C2CC(c3cccc(Nc4ccnc5cc(Cl)ccc45)c3)=NN2C=O)cc(OC)c1OC` (configuration not stated), the GI50 is 2.24 µM and the TGI is 13.6 µM.

In the case of `COc1ccn(CC(=O)c2cc3ccccc3[nH]2)c(=O)n1`, the TGI is more than 100 µM.

In turn, `CC(NC(=O)OC(C)(C)C)C(=O)NC(Cc1ccccc1)C(=O)NCC(=O)ON=C1CCCC1` (configuration not stated) showed a TGI of more than 100 µM.

Turning to `CN(C)CCn1cnc2sc3ccccc3c21`, the TGI is more than 100 µM.

Molecule `COC(=O)c1cc2/c(=N/O)c3ccccc3sc2o1` had a TGI of more than 100 µM.

In turn, `CN1CCN(CC(=O)N2CCCn3c2nc2ccccc2c3=O)CC1` gave a TGI of more than 100 µM.

For the molecule `CN1CCN(c2ccc3[nH]c(C4=C(O)c5nc(CCl)n(C)c5C(=O)C4=O)nc3n2)CC1`, the GI50 was 16.5 µM; the TGI was 40.1 µM and 35.8 µM.

On to `COc1cccc(/C(COc2ccc3c(c2)oc(=O)c2ccccc23)=N\O)c1`, for which the GI50 was 20.1 µM and the TGI was more than 100 µM.

On to `CCOC(=O)Nc1cc(NC(/C=N/NC(C)=O)C(=O)OCC)c(OC)cc1NC(C)=O` (configuration not stated), for which the TGI was more than 100 µM.

The molecule `O=C(Cc1nc(-c2ccccc2)cc(=O)n1-c1ccccc1Cl)c1ccncc1` gave a TGI of more than 100 µM.

As for `COc1ccc(C2C(C#N)=C(N)Oc3c2sc2c(F)cccc32)cc1` (configuration not stated), the GI50 was 5.48 µM and the TGI was 22.2 µM.

On to `CCCCCCCCCC(CCCC(O)CC(=O)O)OC1OC(COC2OC(C)C(O)C(O)C2O)C(O)C(O)C1OC1OC(CO)C(O)C(O)C1OC1OC(C)C(OC(=O)CC(C)C)C(O)C1O` (configuration not stated), for which the GI50 was more than 60 µM and the TGI is more than 60 µM.

`N#Cc1c2c(c(Nc3ccc(F)cc3)n3c1nc1ccccc13)CCCC2` gave a TGI of more than 100 µM.

As to `COc1c2c(cc3occ(-c4ccc(CC=C(C)C)cc4)c(=O)c13)OC(C)(C)C=C2`, the TGI was more than 100 µM.

Turning to `Clc1ccc2c(NCCNC3CCCCC3)ccnc2c1`, the TGI worked out at 24.3 µM.

With `O=C1C=C(c2[nH]c3ccccc3c2C2=CC(=O)c3ccccc3C2=O)C(=O)c2ccccc21`, the TGI was more than 100 µM.

`CC(=O)OCc1cnc2c3c(nc4ccccc4c13)C(=O)c1cccnc1-2`: the GI50 was 0.0323 µM and the TGI stood at 0.749 µM.

For `Clc1ccc(Nc2nnc(CNc3ccccc3)c3ccccc23)cc1`, the GI50 was 3.54 µM and the TGI was 18.3 µM.

Turning to `O=C(OCc1nc2nc(Cl)nc(N3CCOCC3)c2[nH]1)n1ccnc1`, the GI50 is 4.34 µM and the TGI amounted to 15.7 µM.

`CC(C)C1(Cl)CCC2C3(C)CCCC(C)(C(=O)O)C3CC(Cl)C2(Cl)C1Cl` (configuration not stated) came in with a TGI of more than 100 µM.

Consider `CC(C)(C)C1=Nc2c(Br)cc(C(C)(C)C)cc2C(C(F)(F)F)(C(F)(F)F)O1`, for which the TGI was more than 100 µM.

Turning to `CC1CC(NN)=Nc2ccccc2N1` (configuration not stated), the TGI is more than 100 µM.

In the case of `Cn1cc(C2=C(Oc3ccccc3)C(=O)NC2=O)c2ccccc21`, the GI50 was more than 25 µM and the TGI is more than 25 µM.

As to `NC1CCCCC1N.O=C([O-])c1cc(S(=O)(=O)Nc2cc(S(=O)(=O)[O-])cc3cc(S(=O)(=O)[O-])cc(O)c23)ccc1[O-].[Pt+4]`, the GI50 is more than 100 µM and the TGI is more than 100 µM.

Turning to `CC(C)(C)OC(=O)N1CC(O)O[C@H](c2ccccc2)[C@@H]1c1ccccc1` (some centres not stated), the TGI was more than 100 µM.

On to `CSC(SC)=C(C#N)C(=O)Nc1ccc(C)cc1`, for which the TGI was more than 100 µM.

The molecule `COc1ccc(C2=C(Cl)C(=O)N(c3ccc(OC)cc3OC)C(=O)C2(Cl)Cl)cc1` returned a TGI of 56.7 µM.

In the case of `NCCNS(=O)(=O)c1ccc(N)cc1`, the TGI is more than 100 µM.

In the case of `C=CCCCCCCCC(O)C1C[C@H](O)C(CCCCC)O1` (some centres not stated), the TGI worked out at 31.8 µM.

For the origin of these results see PubChem BioAssay (NCI).
